# Measurements from patent US9982045B2, “Anti-CDH6 antibody drug conjugates” (Novartis AG, priority 2014, dated 2018).
# System: OVCAR-3 ovarian xenograft
# Assay: OVCAR-3 ovarian xenograft mouse model
# Conditions: SMCC-DM1 conjugates, single i.v. dose 10 mg/kg
# Experimental: The anti-tumor activity of a selection of anti-CDH6 ADCs were evaluated in the OVCAR-3 ovarian xenograft model. Female NOD-scid-gamma mice were implanted subcutaneously on the right flank with 10×10^6 OVCAR-3 cells containing 50% Matrigel™ (BD Biosciences) in phosphate buffer solution (PBS). The total injection volume containing cells in suspension was 200 μl. Mice were enrolled in the study 29 days post implantation with average tumor volume of 165 mm^3. After being randomly assigned to one of seven groups (n=4/group), mice were administered a single i.v. dose of PBS (10 ml/kg), a non-target isotype control hIgG1-SMCC-DM1 (10 mg/kg), or one of five anti-CDH6-SMCC-DM1 (10 mg/kg). Tumor volumes and body weights were measured twice weekly.
# The anti-tumor activity of a second selection of anti-CDH6 ADCs were evaluated in the OVCAR-3 ovarian xenograft model. […] Tumor volumes and body weights were measured twice weekly.
# The anti-tumor activity of a selection of anti-CDH6 ADCs were evaluated in the OVCAR-3 ovarian xenograft model. […] Tumor volumes and body weights were measured 1-2 times weekly.
# Female NOD-scid-gamma mice were implanted subcutaneously on the right flank with 10×10^6 OVCAR-3 cells containing 50% Matrigel™ (BD Biosciences, San Jose, Calif.) in PBS. […] Tumor volumes and body weights were measured 1-2 times weekly. […]
molecule,measurement,value
"NOV0690: anti-CDH6 human IgG1 from HuCAL PLATINUM phage display; sequence in Table 5 (antibody, light chain constant region) heavy: QVQLLESGGGLVQPGGSLRLSCAASGFTFSDHAIDWVRQAPGKGLEWVSVIAGDGSITYYADSVKGRFTISRDNSKNTLYLQMNSLRAEDTAVYYCARDTGVYREYMDVWGQGTLVTVSSASTKGPSVFPLAPSSKSTSGGTAALGCLVKDYFPEPVTVSWNSGALTSGVHTFPAVLQSSGLYSLSSVVTVPSSSLGTQTYICNVNHKPSNTKVDKRV[sequence of human IgG1 Fc not given] VL: DIELTQPPSVSVSPGQTASITCSGDAIGTKFAHWYQQKPGQAPVLVIYYDHERPSGIPERFSGSNSGNTATLTISGTQAEDEADYYCYSRASSNLVFGGGTKLTVL",Anti-tumor activity (tumor growth),response comparable to that of NOV0712-SMCC-DM1
